# From article PMC4336329 (PLoS ONE, 2015)
# Among all 310,000 compounds or so, about 14,000 (4.5%) showed an effect of 50% or more. The effect is printed as a negative number. The list shows a part of the results.
# Biological target: human ether-à-go-go-related gene (hERG) potassium channel (human, UniProt Q12809)
# Assay: primary screen, population patch clamp on CHO cells stably expressing hERG
# 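Also: peak tail current of the secondary pulse compared with the same well before compound.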
# human ether-à-go-go-related gene (hERG) potassium channel, sequence (Q12809 whole entry, looked up): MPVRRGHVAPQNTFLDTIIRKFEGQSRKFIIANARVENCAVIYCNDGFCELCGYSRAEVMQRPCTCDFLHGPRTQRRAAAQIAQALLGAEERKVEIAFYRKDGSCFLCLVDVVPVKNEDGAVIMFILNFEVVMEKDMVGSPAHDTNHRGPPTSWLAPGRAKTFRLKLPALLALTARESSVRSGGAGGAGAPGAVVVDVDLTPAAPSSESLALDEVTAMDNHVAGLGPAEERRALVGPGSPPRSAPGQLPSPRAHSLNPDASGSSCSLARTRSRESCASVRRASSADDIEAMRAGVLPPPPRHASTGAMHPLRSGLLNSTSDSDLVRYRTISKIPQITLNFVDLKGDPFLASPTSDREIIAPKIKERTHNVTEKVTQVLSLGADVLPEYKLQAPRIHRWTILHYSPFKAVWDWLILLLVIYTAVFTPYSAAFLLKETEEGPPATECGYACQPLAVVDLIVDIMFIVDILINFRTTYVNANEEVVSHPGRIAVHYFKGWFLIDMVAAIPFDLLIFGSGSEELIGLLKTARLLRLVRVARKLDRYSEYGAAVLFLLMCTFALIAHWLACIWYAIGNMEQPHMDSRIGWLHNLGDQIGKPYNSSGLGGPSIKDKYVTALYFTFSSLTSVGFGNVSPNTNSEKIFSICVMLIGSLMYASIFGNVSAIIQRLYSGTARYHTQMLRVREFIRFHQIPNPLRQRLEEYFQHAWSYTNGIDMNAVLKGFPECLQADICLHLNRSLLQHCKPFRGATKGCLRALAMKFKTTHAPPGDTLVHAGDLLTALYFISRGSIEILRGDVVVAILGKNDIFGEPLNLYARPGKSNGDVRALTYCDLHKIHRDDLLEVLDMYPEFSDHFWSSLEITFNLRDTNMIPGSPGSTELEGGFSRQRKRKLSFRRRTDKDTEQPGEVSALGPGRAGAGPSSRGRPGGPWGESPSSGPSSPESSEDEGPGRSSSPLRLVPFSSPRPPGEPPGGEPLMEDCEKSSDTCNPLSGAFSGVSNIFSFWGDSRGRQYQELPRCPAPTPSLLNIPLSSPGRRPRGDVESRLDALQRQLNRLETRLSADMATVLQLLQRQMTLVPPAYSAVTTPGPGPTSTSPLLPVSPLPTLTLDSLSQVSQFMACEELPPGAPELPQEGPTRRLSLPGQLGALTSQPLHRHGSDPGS
row,Compound,"hERG current change (%, negative = inhibition) at 10uM [%]"
1,O=C(NC1CC1)c1cc2cc(Br)ccc2s1,20.9
2,CCN=C1SC(CC(=O)Nc2sc3c(c2C#N)CCCC3)C(=O)N1CC (stereo not shown),-6.84
3,COc1cc(C(=O)OCc2ccccc2C#N)ccc1OCC(=O)N1CCOCC1,-25.7
4,O=C(Nc1ccc(SC(F)F)cc1)C1=COCCO1,-30
5,CC(=O)C1=C(c2ccccc2)NC(=S)NC1c1ccc(O)c(O)c1 (stereo not shown),13.8
6,Cc1nn(Cc2ccc([N+](=O)[O-])cc2)c(=O)n1-c1ccc(F)cc1,-13.9
7,O=C(NCc1nc2ccccc2[nH]1)C1=C[C@H](C2CCCCC2)C[C@H](OCc2ccc(CO)cc2)O1,5.99
8,O=C(CN(CCc1ccccc1)S(=O)(=O)c1ccc(Br)cc1)N/N=C/c1ccccc1C(=O)O,3.46
9,O=c1[nH]c(C2CCN(S(=O)(=O)c3ccccc3F)CC2)nc2c1nnn2Cc1ccc2c(c1)OCCO2,3.32
10,CCN(CC(=O)Nc1c(F)cccc1F)C(=O)c1cc([N+](=O)[O-])ccc1N1CCOCC1,-4.57
11,CCOCC(=O)Nc1cccc(NC(C)=O)c1,8.49
12,CCOC(=O)C1(Cc2ccc(OC)cc2)CCN(C(=O)c2csc(C)n2)CC1,2.99
13,CC(NC(=O)Cc1ccccc1)c1nc2ccccc2[nH]1 (stereo not shown),5.94
14,COc1ccc(C(=O)NC(=S)NNC(=O)c2ccc(C)cc2)cc1,12
15,CCn1c(OC)nc2c1c(=O)n(C)c(=O)n2C,12.4
16,Cc1ccc(-c2csc(/C=C3\SC(C)C(=O)N3CC(=O)Nc3ccccc3F)n2)cc1 (stereo not shown),2.01
17,CC(=O)Oc1ccc(NC(=O)CCC2CCCCC2)c(C(=O)O)c1,-1.66
18,O=C(NCCS(=O)(=O)NCc1ccccc1)c1ccc2c(c1)OCO2,-21.2
19,Cc1ccc(Nc2nc(COC(=O)COc3ccc(C=O)cc3)cs2)cc1,-5.84
20,O=C(Nc1ccc2[nH]ncc2c1)c1cccc(F)c1,17.8
21,COc1ccc2c(c1)C(=O)CC(O)(C(F)F)O2 (stereo not shown),-3.77
22,Cn1nnc(NC(=S)NC(=O)/C=C/c2ccco2)n1,21.9

row,Compound,"hERG current change (%, negative = inhibition) at 10uM [%]"
1,Cc1cccc(NC(=S)N2CCCCCC2)c1C,22
2,O=C1CSc2ccccc2N1Cc1ccc(F)cc1,-38.4
3,OC(c1cccnc1)c1cccs1 (stereo not shown),9.41
4,COc1cccc(CN2CCN(Cc3cccc(F)c3)CC2)c1.O=C(O)C(=O)O,-6.47
5,CCCCc1ccc(NC(=S)N2CCN(c3ccccn3)CC2)cc1,-2.02
6,CC(C)c1nc(CN(C)C(=O)N[C@H](C(=O)N[C@@H](Cc2ccccc2)C[C@H](O)[C@H](Cc2ccccc2)NC(=O)OCc2cncs2)C(C)C)cs1,-24.5
7,COc1cc(N)n(S(=O)(=O)c2ccc(C)cc2)n1,15.4
8,CCN(CC)C(=O)c1cnn(-c2ccccc2)c1NC(=O)c1cccs1,5.94
9,CC(=O)NCCc1nc2ccccc2n1Cc1ccc(Cl)cc1,-26.6
10,O=C(O)C1C(=O)NCC1c1ccccc1 (stereo not shown),10.6
11,COC(=O)c1sc(NC(=O)c2ccco2)nc1C,19.1
12,CCN1CCc2nc(SCC(=O)Nc3ccc(OC)cc3)c(C#N)cc2C1,-44.7
13,Cc1cccc(C2c3[nH]c4ccccc4c3CCN2C(=O)c2cc(CC(C)C)nc(C)n2)n1 (stereo not shown),30.6
14,O=C(NCCc1ccc(Cl)cc1)c1ccc2nccnc2c1,-17.2
15,O=C(CSc1nc(CCC2CCCC2)nc2ccccc12)NCc1ccc2c(c1)OCO2,15
16,CCOc1cc(CO)ccc1OCC(=O)N1CCCCC1,6.99
17,O=C(CCN1C(=O)/C(=C/c2ccc(Cl)cc2)SC1=S)Nc1cccnc1,16
18,CCCCOC(=O)c1ccc(N)cc1,3.2
19,CS(=O)(=O)c1ccc2nc(NC(=O)c3ccc(S(=O)(=O)NCC4CCCO4)cc3)sc2c1 (stereo not shown),41.5
20,O=C(CSc1ccsc1[N+](=O)[O-])N1CCN(c2ccc(Cl)cc2)CC1,10
21,COc1ccc(S(=O)(=O)N(CC(=O)O)Cc2ccccc2)cc1OC,12
22,Cc1cc(C)n2c(SCC(=O)N3CCN(S(=O)(=O)c4ccc(Cl)cc4)CC3)nnc2n1,11.6

row,Compound,"hERG current change (%, negative = inhibition) at 10uM [%]"
1,COc1cccc(C2C3CN(C)CC=C3C(C#N)=C(N)C2(C#N)C#N)c1OC (stereo not shown),-14.2
2,Cc1ccc(NC(=O)CN(C)C(=O)COC(=O)c2ccc(Cl)cc2O)cc1,6.26
3,NC(=O)c1ccc(NC(=O)CCCc2nc(-c3ccccc3Cl)no2)cc1,18.4
4,COc1ccnc(N2CCN(c3ccc(Cl)cc3)CC2)c1C#N,16
5,Cc1ccoc1C(=O)N1CCCC(CCC(=O)N2CCN(c3ccccn3)CC2)C1 (stereo not shown),-15.2
6,COC(=O)c1ccc(C(=O)OC)c(NC(=O)COC(=O)CC2CC3CCC2C3)c1 (stereo not shown),-12.1
7,CCc1ccc(OCC(=O)N/N=C(\C)c2ccc(O)cc2O)cc1,4.55
8,COc1ccc(Cl)cc1NC(=O)NCCN1CCCCC1,-1.07
9,O=C(Nc1ccccc1)c1ccc(S(=O)(=O)NCc2ccco2)cc1,-11.6
10,CC1=C(C)CC(C(=O)NNC(=O)c2ccccc2)C(C(=O)O)C1 (stereo not shown),18
11,COc1cccc(C(C)N(C)Cc2nc(-c3ccoc3)oc2C)c1 (stereo not shown),-39.1
12,O=c1c2ccccc2nc(SCc2cc(F)cc3c2OCOC3)n1Cc1ccco1,-2.26
13,COc1ccc(S(=O)Cc2ccc(C(=O)N3CCN(C(=O)c4ccco4)CC3)o2)cc1 (stereo not shown),7.47
14,COCCNC(=O)CSc1nnc(-c2ccccc2)c(-c2ccccc2)n1,-4.64
15,c1ccc2oc(-c3csc(N4CCOCC4)n3)cc2c1,22.6
16,COc1ccc(OC)c(S(=O)(=O)Nc2cccc(O)c2)c1,0.585
17,COc1ccc(C(=O)c2ncc(C(F)(F)F)cc2Cl)cc1,3.33
18,CCc1c(C)nc2c(-c3ccccc3)c(C)nn2c1Nc1ccc(NC(C)=O)cc1,-2.44
19,Cc1ccc(C(C)NC(=O)c2cccs2)cc1 (stereo not shown),3.58
20,NNc1nc(Nc2ccccc2)nc(N2CCCCC2)n1,5.95
21,C=CCN(CC(=O)NCc1ccc(OC)cc1)C(=O)c1csnn1,-16.7
22,Cc1ccc(CC(=O)NCCCn2ccnc2)cc1,21.5

row,Compound,"hERG current change (%, negative = inhibition) at 10uM [%]"
1,Cc1ccc(NC(=O)COC(=O)c2ccc(Cl)cc2)cc1S(=O)(=O)N(C)C,-7.27
2,O=C(O)CC1c2ccccc2CCN1S(=O)(=O)c1ccc(F)cc1 (stereo not shown),8.32
3,O=C(C1CC1)N1CCc2cc(S(=O)(=O)N(CCO)Cc3ccccc3)ccc21,-10.4
4,CCn1c(SCC(=O)Nc2nc(-c3ccc(C)cc3)cs2)nnc1-c1ccccc1,-1.44
5,CCOC(=O)C1CCCN(c2c(N3CCC(N4CCCCC4)CC3)c(=O)c2=O)C1 (stereo not shown),-0.665
6,COc1ccc(NC(=O)Nc2ccc(F)cc2)cn1,27.7
7,COc1ccc2[nH]c(C)c(C(=O)CN(C)CC3OCCO3)c2c1,5.17
8,CCN1CCN(C(=O)c2ccc(N3CC4CC(C3)c3cccc(=O)n3C4)c([N+](=O)[O-])c2)CC1 (stereo not shown),40.6
9,CCCCCC(=O)NN1C(=S)N(c2ccc(OC)cc2)C(=O)C1CC(=O)Nc1ccccc1 (stereo not shown),-2.92
10,O=C(NC(Cc1ccccc1)C(=O)O)/C(=C\c1ccco1)NC(=O)c1ccc(Br)cc1 (stereo not shown),-0.803
11,N#CCOc1ccc2oc(-c3ccco3)cc(=O)c2c1,-9.42
12,CCOC(=O)C1(Cc2cccc(Cl)c2)CCCN(C(=O)c2cccnc2)C1 (stereo not shown),5.62
13,Cc1cc2n(n1)C(c1ccc(O)cc1)Nc1ccccc1-2 (stereo not shown),-9.37
14,COc1ccc(NC(=O)CSc2nnc(-c3ccccc3C)n2N)cc1OC,-11.7
15,COCCCNC(=O)c1ccc(CS(=O)(=O)c2ccccc2OC)o1,6.84
16,COc1ccc(S(=O)(=O)N(CC(=O)NCc2ccco2)C2CCCCC2)cc1OC,-44.9
17,COc1ccc(-n2c(O)c(C(C)=NCC3CCCO3)c(=O)[nH]c2=O)cc1 (stereo not shown),15.2
18,O=C(CSc1nnc(COc2ccccc2)n1Cc1ccco1)Nc1ccc2c(c1)OCCO2,14.1
19,COc1ccc(/C=C(/NC(=O)c2cccs2)C(=O)Nc2ccc(C)cc2)cc1OC,5.22
20,CCC(=O)c1cc2c(cc1NC(=O)c1ccccc1)OCCO2,15.6
21,COc1ccc(OCC(=O)Nc2ccccc2OC)cc1,-5.3
22,COc1cc(C=O)ccc1OCCOCCOc1c(C)cc(Cl)cc1Cl,0.67
